Assay results from paper PMC7018998.

How the values were obtained:
ErbB3 (human) [1] = biological target: ErbB3 (human) (UniProt P21860); assay: two-colour single molecule co-localisation and tracking (TOCCSL, TIR microscopy); live CHO-ErbB2-ErbB3 cells; AF488-ErbB3-Fab and AF647-ErbB3-Fab for homodimers, AF488-ErbB2-Fab and AF647-ErbB3-Fab for heterodimers; with 200 ng/mL (25 nM) HRG, no pertuzumab; room temperature
ErbB3 (human) [2] = biological target: ErbB3 (human) (UniProt P21860); assay: two-colour single molecule co-localisation and tracking (TOCCSL, TIR microscopy); live CHO-ErbB3 cells (no ErbB2) on fibronectin-coated coverglass, labelled with AF488-ErbB3-Fab and AF647-ErbB3-Fab; no HRG; room temperature; signals within 160 nm counted as co-localised; fractions corrected for labelling and for the diffusion of monomers and dimers
ErbB3 (human) [3] = biological target: ErbB3 (human) (UniProt P21860); assay: as above; remark: listed apart in the source
ErbB3 (human) [4] = biological target: ErbB3 (human) (UniProt P21860); assay: two-colour single molecule co-localisation and tracking (TOCCSL, TIR microscopy); live CHO-ErbB2-ErbB3 cells; AF488-ErbB3-Fab and AF647-ErbB3-Fab for homodimers, AF488-ErbB2-Fab and AF647-ErbB3-Fab for heterodimers; no HRG, no pertuzumab; room temperature
ErbB3 (human) [5] = biological target: ErbB3 (human) (UniProt P21860); assay: two-colour single molecule co-localisation and tracking (TOCCSL, TIR microscopy); live CHO-ErbB3 cells (no ErbB2), labelled with AF488-ErbB3-Fab and AF647-ErbB3-Fab; in the presence of 200 ng/mL (25 nM) HRG; room temperature
ErbB3 (human) [6] = biological target: ErbB3 (human) (UniProt P21860); assay: two-colour single molecule co-localisation (TOCCSL), global analysis of the homo- and heterodimerization experiments; CHO-ErbB2-ErbB3 cells; data of the separate ErbB3 homodimer and ErbB3/ErbB2 heterodimer experiments analysed together with a mathematical model of ErbB3 homodimers, ErbB3/ErbB2 heterodimers and ErbB3 monomers; with HRG
ErbB3 (human) [7] = biological target: ErbB3 (human) (UniProt P21860); assay: two-colour single molecule co-localisation and tracking (TOCCSL, TIR microscopy); live CHO-ErbB2-ErbB3 cells treated with pertuzumab (PRT); no HRG; labels as for the homo- and heterodimerization experiments; room temperature

Sequence of ErbB3 (chain, as listed by the source): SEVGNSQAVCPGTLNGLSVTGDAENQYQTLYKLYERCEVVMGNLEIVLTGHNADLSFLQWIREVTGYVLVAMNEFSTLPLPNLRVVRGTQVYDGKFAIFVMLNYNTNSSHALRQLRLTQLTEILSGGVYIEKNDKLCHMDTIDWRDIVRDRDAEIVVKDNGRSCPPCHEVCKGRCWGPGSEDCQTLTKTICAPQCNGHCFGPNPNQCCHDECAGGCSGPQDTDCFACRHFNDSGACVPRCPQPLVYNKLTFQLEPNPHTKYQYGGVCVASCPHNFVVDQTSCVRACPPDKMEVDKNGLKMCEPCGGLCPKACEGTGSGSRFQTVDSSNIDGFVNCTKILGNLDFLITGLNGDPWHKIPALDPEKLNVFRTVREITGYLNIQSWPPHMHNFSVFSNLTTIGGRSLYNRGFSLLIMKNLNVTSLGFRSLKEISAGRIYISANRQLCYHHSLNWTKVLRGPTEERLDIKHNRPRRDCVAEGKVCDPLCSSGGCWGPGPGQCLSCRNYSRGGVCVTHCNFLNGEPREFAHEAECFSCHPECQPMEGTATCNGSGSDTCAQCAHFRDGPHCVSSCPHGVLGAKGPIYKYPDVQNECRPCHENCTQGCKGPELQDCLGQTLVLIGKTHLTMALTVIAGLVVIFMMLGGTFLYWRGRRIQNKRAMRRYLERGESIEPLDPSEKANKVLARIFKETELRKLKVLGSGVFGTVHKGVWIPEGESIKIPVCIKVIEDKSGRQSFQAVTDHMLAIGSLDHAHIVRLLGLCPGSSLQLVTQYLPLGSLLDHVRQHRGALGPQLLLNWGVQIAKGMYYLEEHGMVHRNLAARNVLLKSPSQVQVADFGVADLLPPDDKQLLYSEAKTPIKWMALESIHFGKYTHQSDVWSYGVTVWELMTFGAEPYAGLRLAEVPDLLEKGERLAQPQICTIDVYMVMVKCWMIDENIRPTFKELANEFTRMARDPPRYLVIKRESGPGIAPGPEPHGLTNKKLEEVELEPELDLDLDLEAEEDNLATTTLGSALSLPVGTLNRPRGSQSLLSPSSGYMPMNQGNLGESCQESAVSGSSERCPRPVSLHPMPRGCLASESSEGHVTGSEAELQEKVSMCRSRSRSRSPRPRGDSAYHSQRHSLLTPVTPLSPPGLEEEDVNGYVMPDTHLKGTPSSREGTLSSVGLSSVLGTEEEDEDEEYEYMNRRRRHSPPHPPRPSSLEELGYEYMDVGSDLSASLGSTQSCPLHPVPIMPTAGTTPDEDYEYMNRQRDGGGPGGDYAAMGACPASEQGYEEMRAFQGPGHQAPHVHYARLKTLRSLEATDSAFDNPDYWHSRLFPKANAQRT

percent of ErbB3 in homodimers (ErbB3 (human) [1]): 90%
percent of ErbB3 in homodimers (ErbB3 (human) [2]): 10%
percent of ErbB3 in homodimers (ErbB3 (human) [3]): 23%
percent of ErbB3 in homodimers (ErbB3 (human) [4]): 70%
percent of ErbB3 in homodimers (ErbB3 (human) [5]): 80%
percent of ErbB3 in homodimers (global analysis) (ErbB3 (human) [6]): 45%
percent of ErbB3 in homodimers (ErbB3 (human) [7]): 26%
Substance: ErbB3 (a stretch of the chain, sequence left out) (receptor; other documents disagree on this pair)
